# Data published in the supplement of paper PMC10126150.
# Values marked as one replicate rest on one cluster of the flow cell; about a third of the high ones do not repeat.
# System: ATP
# Experiment: switch fluorescence ratio, 500 uM ATP over buffer (Cy3 cluster intensity, sum of 5 cycles each) (fold (ratio)); higher = stronger signal-on switching upon ATP binding; sequences stand for … in TCGTCGGCAGCGTCAGATGTGTATAAGAGACAGTTTTTTTTTTTTTTTTTTTTTTTTT…TC
# Conditions: aptamer strand: ATP DNA aptamer (quencher-CACCTGGGGGAGTATTGCGGAGGAAGG + anchor), 100 nM annealed; ATP concentration: 500 uM; one replicate
# In short: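 Five buffer/ATP imaging cycles were run on Cy3-labelled switching-strand clusters on a modified Illumina MiSeq flow-cell, with NaOH stripping and re-annealing between cycles. In each cycle, clusters annealed to 100 nM quencher-labelled ATP aptamer were imaged in selection buffer, then after 15 min with 500 uM ATP at 22 °C. Per cluster, the fluorescence ratio is summed target-cycle over summed buffer-cycle Cy3 intensity, averaged per switch-domain sequence. Only clusters within 100-1000 RFU were kept.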
# 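Further: ATP exposure 15 min at 22 °C before imaging.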
row,Sequence,switch fluorescence ratio
1,AATAATTGAT,1.05
2,AGTTAGTGCA,0.974
3,GGTAGCCTTC,1.04
4,GTATCATTGA,0.991
5,AGTTACACGC,1.03
6,CTGTGCCACG,0.977
7,CTGGAGGAAT,1.75
8,AAGCGTGCGG,1.01
9,GAGACGGGCC,1.02
10,CCAGGTGTAC,1.11
11,GGTGAATTTG,0.992
12,AGGTGCAGA,0.998
13,ATGAGAGGGG,1.18
14,CATTCCACCG,2.33
15,TAGGGGGTGC,1.01
16,CATCGACATG,0.995
17,AAGGTCGTTG,0.993
18,TCACGGGTGT,1.46
19,CAGTGCAAAG,1.03
20,TGAAGGCAGT,1.09
21,CCAAATCACA,1.05
22,GCACTGGGAT,1.03
23,TCGCTAAACA,1.02
24,GATCCTAGGA,0.945
25,TAAATGGTTA,0.99
26,CTAGGAGACT,1.06

row,Sequence,switch fluorescence ratio
1,AGACGAAAAA,1.04
2,AGCCAGATGT,1.01
3,AGGGGAGAGC,0.99
4,GCAACTCATG,0.98
5,AGGACATTCT,0.989
6,GGTGCGGATA,0.966
7,GTTACGTGC,1.05
8,TATAACTACA,1.07
9,AGCTAATTTG,0.996
10,TTTGGTATCT,0.992
11,CGGCCTTGTA,0.994
12,CTTACCTTGG,1.02
13,TTAACTCTCA,0.939
14,GCCAGGAAA,0.945
15,TGAGTCCCAG,1.01
16,TTTGGACAAC,1
17,GTGTGATTGG,0.936
18,TGCCTTCTTT,1.04
19,ACATTGAAGT,1.02
20,CTGGCTGCAC,2.06
21,TACGAAGGTG,1.23
22,GTAGGATTTA,0.946
23,TCAATATAG,0.992
24,AGAAAATGG,1.01
25,TTATGGTCAA,0.966
26,GTCTTACGCG,0.971

row,Sequence,switch fluorescence ratio
1,TTGCCGATGT,1.05
2,CGTGCACAAG,0.981
3,TTTTCGCGCT,1.02
4,GCCGAATGGC,1.03
5,GAGTCTATTC,1.03
6,TGCTTCCGAG,2.75
7,GGCTGTATAG,0.965
8,CGTAGGTAAG,1.02
9,GCCACATGTT,1.01
10,TGGTGCGTGC,0.933
11,GAGGTTTGAT,0.976
12,TTGCATACGG,2.79
13,CCAGGTCTGG,0.981
14,TTTGGTCATT,0.999
15,AACTTAGTAA,1.04
16,ACGGAACGAA,1.09
17,TATTTGGCCC,0.914
18,ACGCGCAGCT,0.957
19,ACTACTCGTG,1.02
20,AGTTGTCACG,1.03
21,AGTTTGTAGC,0.979
22,CTCGGGTGTT,1
23,CGGGTGCGTA,0.982
24,AACGGTAGAT,1.02
25,CACTATTCAG,0.952
26,AGTGACCCAC,1.16

row,Sequence,switch fluorescence ratio
1,TTGGTGCATT,1.05
2,CGCCTTATTC,1.1
3,GCGGCAAGTT,1.03
4,CGCTTCGATC,1.06
5,CCCCATCGTA,1.01
6,TTTTCCGAGG,1.09
7,AATTTCAGTT,1.02
8,TACATGTCCT,1.05
9,GGTTACGAGA,1.04
10,AATAGAAGGT,0.998
11,GAACGATGTA,0.992
12,CCCGTTAAA,1.01
13,TAGCAGCAAA,1.26
14,ATACGTGAGC,1.04
15,GCTGTGTAGC,0.985
16,CGTCACTGAA,1.03
17,AAATCGAAAT,3.67
18,ACGGCTTAA,1
19,AGACGGGCAG,1.04
20,TTCCAGTACT,1.09
21,CCTTGTACAT,1.13
22,TGCCCTATTG,0.988
23,ATTATACGCG,1.04
24,ACCTGAGTAT,1.03
25,CTAAAGGAAT,1
26,CCATGTGGGC,1.06

row,Sequence,switch fluorescence ratio
1,TTATCAAAGA,1.04
2,TTTTCCAGTG,1.07
3,GGGAGAGTAT,1.01
4,GAGTGAGGCG,0.971
5,ATGCGGCACA,1.01
6,AATATACCTG,1.03
7,ATTGATTCAC,1.02
8,CTCTCCAGTC,1.25
9,GGCTTAAGAC,1
10,AAGTTTCCGG,0.973
11,AATCTGA,1.05
12,GAGCGAAGGG,0.997
13,TAAGTCGTTA,1.02
14,GACATAGTCC,1.04
15,CTAGTAGATT,0.952
16,ATCCTCGAAA,1.67
17,ACTTGGTCAC,1.07
18,GTTTTAAGG,0.967
19,AGAGAAGTTA,1.01
20,GTCTCTCCAA,1.05
21,GATCACGGTA,1.06
22,CCGGTCACTC,1.62
23,TTGTTTAGTC,1.01
24,AACGCTACAT,1.47
25,GACTAAGAGA,1.01
26,CGGTGCTTGC,1.04

row,Sequence,switch fluorescence ratio
1,AATCTAGGCT,0.986
2,CCGTGTCAGC,1.12
3,AATTATAAC,0.989
4,TAAGACACGC,1.03
5,GGGTTGCCAA,1.03
6,AGGTTATGCG,1.01
7,TTATGTGGCA,0.988
8,AGAAGTCGGC,1.07
9,GGTAGGTGAA,1.03
10,CCGGGCAGCT,1.43
11,CCACTGCTGG,1.12
12,CAGCACACGA,1.73
13,CGTACCGAGG,1.06
14,AAGTAATATG,1.01
15,CTCTCACGGT,1.14
16,TACCGTACGG,1.04
17,TTTATCGATG,0.967
18,TGAAGGCTGG,0.951
19,GACGGTGATC,1.03
20,ATTAAGGTGA,1.01
21,GAATCGGCG,0.92
22,GGCGTAAACA,1.1
23,ATTGGCCTAC,1
24,ACGGAGCCCA,1.4
25,ATTCAGCTGC,1.02
26,CATGGCGAGC,0.986

row,Sequence,switch fluorescence ratio
1,GCTTGTTTAT,1.47
2,TGCAGGCTT,1.03
3,GGGGGTAAAT,1
4,TGGTGACCCG,1.05
5,TATTAACTAA,1.02
6,AAGTTAAGC,0.927
7,ATGCCCAGAA,0.933
8,TAGTCCTGTA,1.02
9,TATGGCAATT,1.03
10,GGGACGGAGC,1.09
11,CCAGCTATGG,1.07
12,CGGCGATCTA,1
13,GATCAATCCA,0.966
14,ATTTTTCGCC,1
15,CTAACGAGCA,1.15
16,TCTGGGCAGA,1.04
17,AAGTTCGAGG,1.03
18,CAGGATAAGG,0.951
19,AAAGGTAGCT,0.998
20,ACGGGTGGGC,1.07
21,AGGTATAGT,0.953
22,TTGTCCGATT,0.973
23,AGACGAGATG,1.02
24,TTGCCTCTTT,1.02
25,GCTTGTGTTG,1.06
26,TTTGGATTG,0.956

row,Sequence,switch fluorescence ratio
1,TAAAGTTTCT,0.95
2,CTTGCACCTT,1.12
3,AAATCATGA,0.996
4,AAGAATTCG,1.13
5,GTGTCGCGCA,1
6,CCTGGCCATA,1.22
7,CTCTATCGAA,0.993
8,TGAGCGCGTT,1.02
9,GAAGAGGTGA,0.942
10,CACTCTAGAG,0.988
11,ACATGGGGCT,1
12,GTCGATGGTA,0.968
13,AATGCGCAAA,1.49
14,TCCATGCCCT,1.04
15,GTTGATCGCT,0.977
16,AGGTCATCCA,0.99
17,CAATAAAGA,1.02
18,GACGGACCTG,0.998
19,ATCAATTTGA,0.993
